Assay [1] addresses T1, central stalk γε complex of the A. woodii F1 ATP synthase (atpG and atpC expressed bicistronically, His6 tag on ε) (Acetobacterium woodii) (UniProt P50005+P50009).
T1 sequence 1: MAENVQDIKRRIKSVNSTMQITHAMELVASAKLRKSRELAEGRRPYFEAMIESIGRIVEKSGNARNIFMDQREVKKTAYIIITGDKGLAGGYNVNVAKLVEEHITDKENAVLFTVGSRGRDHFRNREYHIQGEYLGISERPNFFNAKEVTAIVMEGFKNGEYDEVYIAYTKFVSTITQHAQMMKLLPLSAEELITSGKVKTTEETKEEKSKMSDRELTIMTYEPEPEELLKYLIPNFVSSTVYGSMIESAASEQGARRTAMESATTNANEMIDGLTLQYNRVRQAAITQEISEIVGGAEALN
T1 sequence 2: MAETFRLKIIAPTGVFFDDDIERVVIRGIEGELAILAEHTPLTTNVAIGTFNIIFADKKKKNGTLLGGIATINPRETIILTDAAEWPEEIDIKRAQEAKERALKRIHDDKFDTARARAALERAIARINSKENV
Description: native MS; LILBID-MS; purified subunits incubated in 50 mM KPi, 200 mM NaCl, 2 mM ATP, 2 mM MgCl2, 10% glycerol, pH 7.4, 4 °C, 1 h; exchanged into 100 mM ammonium acetate, 2 mM ATP, 2 mM MgCl2, pH 7.4; both purified.

By UniProt entry, the sequences of proteins in these tests, tags left out. Where a name states a change or a piece, a line headed by the entry shows the natural chain unless it says otherwise.
UniProt P50000: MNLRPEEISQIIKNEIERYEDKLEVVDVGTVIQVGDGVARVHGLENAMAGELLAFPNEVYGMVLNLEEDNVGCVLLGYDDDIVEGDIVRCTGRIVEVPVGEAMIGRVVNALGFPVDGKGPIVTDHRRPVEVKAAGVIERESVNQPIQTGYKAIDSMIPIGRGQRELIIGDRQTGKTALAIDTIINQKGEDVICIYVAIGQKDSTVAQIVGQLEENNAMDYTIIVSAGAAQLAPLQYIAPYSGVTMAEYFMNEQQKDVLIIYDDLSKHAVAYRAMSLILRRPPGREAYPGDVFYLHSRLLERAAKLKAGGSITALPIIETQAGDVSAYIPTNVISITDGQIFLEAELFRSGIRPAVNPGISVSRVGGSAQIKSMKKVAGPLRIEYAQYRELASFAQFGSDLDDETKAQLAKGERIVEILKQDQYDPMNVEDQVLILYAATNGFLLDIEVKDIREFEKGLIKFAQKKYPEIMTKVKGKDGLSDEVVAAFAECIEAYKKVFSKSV
UniProt P50002: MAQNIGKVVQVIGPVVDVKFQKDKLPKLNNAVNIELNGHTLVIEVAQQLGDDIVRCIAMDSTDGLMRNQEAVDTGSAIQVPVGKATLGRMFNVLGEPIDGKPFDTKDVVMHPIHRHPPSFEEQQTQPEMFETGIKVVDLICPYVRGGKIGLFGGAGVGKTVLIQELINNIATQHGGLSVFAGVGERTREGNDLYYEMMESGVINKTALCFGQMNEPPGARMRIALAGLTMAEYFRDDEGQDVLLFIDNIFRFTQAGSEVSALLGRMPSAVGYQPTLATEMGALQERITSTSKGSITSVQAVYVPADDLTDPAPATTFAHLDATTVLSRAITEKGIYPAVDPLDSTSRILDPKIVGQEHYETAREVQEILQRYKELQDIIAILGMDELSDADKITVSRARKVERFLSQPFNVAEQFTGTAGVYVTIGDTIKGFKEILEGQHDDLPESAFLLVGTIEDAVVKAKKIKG

The target in assay [2] is in vitro assembled αβ heterodimer (StrepI-α with His6-β, in ATP/Mg2+ or other nucleotide/Mg2+) (Acetobacterium woodii) (UniProt P50000+P50002). The description is as above.
Assay [3] has as its target β-subunit of the F1 part of the Na+-F1FO-ATP synthase of Acetobacterium woodii, N-terminal His6 tag (Acetobacterium woodii) (UniProt P50002). The description is as above.
Assay [4] deals with T2, γ-subunit of the A. woodii F1 ATP synthase (untagged, only obtained co-expressed with other subunits) (Acetobacterium woodii) (UniProt P50005).
T2 sequence: T1 sequence 1
Described as above.

The target of assay [5] is in cellula αβ complex purified from E. coli (Acetobacterium woodii) (UniProt P50000+P50002). The description is as above.
Assay [6] concerns the target T1, central stalk γε complex of the A. woodii F1 ATP synthase (atpG and atpC expressed bicistronically, His6 tag on ε) (Acetobacterium woodii). Kind of assay: native MS; LILBID-MS; purified subunits or purified complexes incubated without ATP/Mg2+ (ammonium acetate buffer without additives); both purified.
The target of assay [7] is β-subunit of the F1 part of the Na+-F1FO-ATP synthase of Acetobacterium woodii, N-terminal His6 tag (Acetobacterium woodii) (UniProt P50002). Kind of assay: condition: only without ATP/Mg^2+ (ammonium acetate buffer without any additives); native MS; LILBID-MS; purified subunits or purified complexes incubated without ATP/Mg2+ (ammonium acetate buffer without additives); both purified.

Assay [8] has as its target α-subunit of the F1 part of the Na+-F1FO-ATP synthase of Acetobacterium woodii, N-terminal StrepI tag (Acetobacterium woodii) (UniProt P50000). Description: native MS; LILBID-MS; purified subunits incubated in 50 mM KPi, 200 mM NaCl, 2 mM ATP, 2 mM MgCl2, 10% glycerol, pH 7.4, 4 °C, 1 h; exchanged into 100 mM ammonium acetate, 2 mM ATP, 2 mM MgCl2, pH 7.4; both purified.

Assay [9] deals with β-subunit of the F1 part of the Na+-F1FO-ATP synthase of Acetobacterium woodii, N-terminal His6 tag (Acetobacterium woodii) (UniProt P50002). Kind of assay: SEC; HPLC on a bioZen 1.8 µm SEC-3 column, 60 µg protein, elution buffer A (50 mM KPi, 200 mM NaCl, pH 7.4) without ATP/Mg2+, 4 °C; both purified.
Assay [10] shares this target. Description: pull-down + native MS; subunits co-expressed in E. coli, complex co-purified by affinity chromatography (Ni-NTA) and SEC, analysed by LILBID-MS and SDS-PAGE.
The target is the same in assay [11]. Kind of assay: native MS; nESI ion mobility MS with collision-induced unfolding of the αβ heterodimer co-expressed in and purified from E. coli, in the presence of ATP and Mg2+; precursor selected at m/z 4950.

These are yes or no findings as the source states them, for the method shown. For some assays here: Binding seen in cells or lysates may run through a third protein. Some results given as binding are weak or reduced against the parent protein; the word gives no strength. For some assays here: Where a sequence is shown, tags or fusion partners need not be part of it.

These results are taken from paper PMC8904574.

“α[WT] with β[K159Q] (the two subunits incubated together in ATP/Mg2+) (from UniProt P50000 1-502; P50002 1-466) (complex)”: the binding result in assay [1] was “no binding”.
With “in vitro assembled αβ heterodimer (StrepI-α with His6-β, in ATP/Mg2+ or other nucleotide/Mg2+) (from UniProt P50000 1-502; P50002 1-466) (complex)”, in [2], the binding result is reported as “no binding”.
On to “β-subunit of the F1 part of the Na+-F1FO-ATP synthase of Acetobacterium woodii, N-terminal His6 tag (from UniProt P50002 1-466)”, for which the binding entry in assay [3] is given as “no binding”; in assay [1], “binds weakly”; in [4] it was “binds weakly”.
In the case of “α[WT] with β[K159Q, R186Q, R251Q] (the two subunits incubated together in ATP/Mg2+) (from UniProt P50000 1-502; P50002 1-466) (complex)”, the binding result in assay [1] is reported as “no binding”.
Consider “in cellula αβ complex purified from E. coli (from UniProt P50000 1-502; P50002 1-466)”, for which the binding entry in assay [5] is on record as “no binding”.
In the case of “α-subunit of the F1 part of the Na+-F1FO-ATP synthase of Acetobacterium woodii, N-terminal StrepI tag (from UniProt P50000 1-502)”, the binding result was “no binding (condition: without ATP/Mg^2+)” in assay [6]; “no binding” in [7]; “no binding” in assay [8]; “binds weakly” in [1]; “binds weakly” in assay [4]; “no binding (condition: without ATP/Mg^2+)” in assay [9].
As for “α[WT] with β[R186Q] (the two subunits incubated together in ATP/Mg2+) (from UniProt P50000 1-502; P50002 1-466) (complex)”, in assay [1], the binding result is given as “no binding”.
As to “α[WT] with β[R251Q] (the two subunits incubated together in ATP/Mg2+) (from UniProt P50000 1-502; P50002 1-466) (complex)”, the binding entry in [1] is listed as “no binding”.
For the substance “α-subunit of the A. woodii F1 ATP synthase as co-expressed in the in cellula complexes (no tag of its own) (from UniProt P50000 1-502)”, the binding entry in [10] and in assay [11] was “binds” throughout.
